These results are taken from ChEMBL document CHEMBL1961873, “Compounds: GSK PKIS; Assays: Nanosyn kinase panel” (2012).

For part of these data: This list holds what a sample rich in strong results left over. The list shows a part of the results, in another mix than the full data.

Test [1] deals with Epidermal growth factor receptor (Homo sapiens), P00533 [T790M]. Conditions: at 1 µM.
In test [2] the test system is Epidermal growth factor receptor (Homo sapiens), P00533 [L858R,T790M]. Conditions: at 0.1 µM.
Test [3] has the same test system. Conditions: at 1 µM.
Test [4] deals with Ephrin type-A receptor 2 (Homo sapiens) (UniProt P29317). Conditions: at 0.1 µM.
Test [5] shares this target. Conditions: at 1 µM.
Test [6] deals with T1, Ephrin type-A receptor 3 (Homo sapiens) (UniProt P29320).
T1 sequence (whole entry): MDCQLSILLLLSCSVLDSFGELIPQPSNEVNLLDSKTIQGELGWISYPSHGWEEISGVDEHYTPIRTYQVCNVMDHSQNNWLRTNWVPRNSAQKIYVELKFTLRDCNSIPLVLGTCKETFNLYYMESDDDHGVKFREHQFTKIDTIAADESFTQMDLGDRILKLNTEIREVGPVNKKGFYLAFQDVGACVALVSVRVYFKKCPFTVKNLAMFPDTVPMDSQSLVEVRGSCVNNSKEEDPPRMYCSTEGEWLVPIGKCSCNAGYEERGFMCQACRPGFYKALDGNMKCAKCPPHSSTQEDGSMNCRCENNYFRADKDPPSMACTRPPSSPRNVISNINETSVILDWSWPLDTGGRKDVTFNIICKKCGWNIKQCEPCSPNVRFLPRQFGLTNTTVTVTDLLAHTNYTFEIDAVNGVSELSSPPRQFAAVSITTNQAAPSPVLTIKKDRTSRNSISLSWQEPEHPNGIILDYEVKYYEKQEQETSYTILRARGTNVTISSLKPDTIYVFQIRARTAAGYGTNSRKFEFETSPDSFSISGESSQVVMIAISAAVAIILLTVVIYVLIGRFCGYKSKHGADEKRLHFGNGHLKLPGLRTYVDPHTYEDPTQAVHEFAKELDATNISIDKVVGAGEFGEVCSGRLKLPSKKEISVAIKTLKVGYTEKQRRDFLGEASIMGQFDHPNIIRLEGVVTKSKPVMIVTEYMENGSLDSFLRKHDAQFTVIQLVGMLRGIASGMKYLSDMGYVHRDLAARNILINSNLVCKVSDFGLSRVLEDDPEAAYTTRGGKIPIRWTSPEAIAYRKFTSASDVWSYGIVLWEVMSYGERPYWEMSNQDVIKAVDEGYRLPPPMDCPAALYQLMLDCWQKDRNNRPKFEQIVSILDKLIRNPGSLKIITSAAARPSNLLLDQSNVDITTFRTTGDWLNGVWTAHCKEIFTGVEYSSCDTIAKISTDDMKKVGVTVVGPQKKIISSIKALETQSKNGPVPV
Conditions: at 0.1 µM.

Test [7] concerns the target T1, Ephrin type-A receptor 3 (Homo sapiens). Conditions: at 1 µM.
For test [8], the target named is Ephrin type-A receptor 4 (Homo sapiens) (UniProt P54764). Conditions: at 0.1 µM.
For test [9] the target is unchanged. Conditions: at 1 µM.
Test [10] concerns the target T2, Ephrin type-B receptor 2 (Homo sapiens) (UniProt P29323).
T2 sequence (whole entry): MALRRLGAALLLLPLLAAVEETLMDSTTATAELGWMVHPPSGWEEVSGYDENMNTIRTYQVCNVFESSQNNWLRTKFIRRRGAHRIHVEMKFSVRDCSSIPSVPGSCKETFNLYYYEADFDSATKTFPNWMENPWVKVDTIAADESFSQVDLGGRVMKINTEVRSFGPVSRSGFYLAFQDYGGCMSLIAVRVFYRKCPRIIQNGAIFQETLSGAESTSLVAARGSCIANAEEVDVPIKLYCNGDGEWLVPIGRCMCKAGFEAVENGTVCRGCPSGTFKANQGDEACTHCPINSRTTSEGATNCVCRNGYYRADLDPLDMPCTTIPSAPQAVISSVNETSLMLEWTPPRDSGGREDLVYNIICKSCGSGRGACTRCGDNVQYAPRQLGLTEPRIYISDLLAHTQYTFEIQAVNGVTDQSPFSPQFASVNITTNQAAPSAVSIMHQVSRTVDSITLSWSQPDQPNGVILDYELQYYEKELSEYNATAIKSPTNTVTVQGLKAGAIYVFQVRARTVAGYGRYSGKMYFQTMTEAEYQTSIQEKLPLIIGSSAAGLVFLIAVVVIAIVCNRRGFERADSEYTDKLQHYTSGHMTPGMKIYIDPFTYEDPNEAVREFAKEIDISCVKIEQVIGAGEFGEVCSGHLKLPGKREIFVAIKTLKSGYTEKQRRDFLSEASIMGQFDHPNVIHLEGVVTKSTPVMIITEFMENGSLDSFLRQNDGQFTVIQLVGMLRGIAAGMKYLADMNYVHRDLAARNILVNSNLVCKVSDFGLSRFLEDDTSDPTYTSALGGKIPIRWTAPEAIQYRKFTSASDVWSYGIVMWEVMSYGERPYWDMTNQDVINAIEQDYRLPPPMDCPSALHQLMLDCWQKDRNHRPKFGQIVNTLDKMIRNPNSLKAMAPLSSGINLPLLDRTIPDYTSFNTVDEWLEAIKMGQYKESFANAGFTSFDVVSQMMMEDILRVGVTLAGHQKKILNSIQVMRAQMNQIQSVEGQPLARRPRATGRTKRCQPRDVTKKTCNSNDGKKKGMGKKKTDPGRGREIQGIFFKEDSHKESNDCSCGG
Conditions: at 1 µM.

Test [11] concerns the target T3, Ephrin type-B receptor 3 (Homo sapiens) (UniProt P54753).
T3 sequence (whole entry): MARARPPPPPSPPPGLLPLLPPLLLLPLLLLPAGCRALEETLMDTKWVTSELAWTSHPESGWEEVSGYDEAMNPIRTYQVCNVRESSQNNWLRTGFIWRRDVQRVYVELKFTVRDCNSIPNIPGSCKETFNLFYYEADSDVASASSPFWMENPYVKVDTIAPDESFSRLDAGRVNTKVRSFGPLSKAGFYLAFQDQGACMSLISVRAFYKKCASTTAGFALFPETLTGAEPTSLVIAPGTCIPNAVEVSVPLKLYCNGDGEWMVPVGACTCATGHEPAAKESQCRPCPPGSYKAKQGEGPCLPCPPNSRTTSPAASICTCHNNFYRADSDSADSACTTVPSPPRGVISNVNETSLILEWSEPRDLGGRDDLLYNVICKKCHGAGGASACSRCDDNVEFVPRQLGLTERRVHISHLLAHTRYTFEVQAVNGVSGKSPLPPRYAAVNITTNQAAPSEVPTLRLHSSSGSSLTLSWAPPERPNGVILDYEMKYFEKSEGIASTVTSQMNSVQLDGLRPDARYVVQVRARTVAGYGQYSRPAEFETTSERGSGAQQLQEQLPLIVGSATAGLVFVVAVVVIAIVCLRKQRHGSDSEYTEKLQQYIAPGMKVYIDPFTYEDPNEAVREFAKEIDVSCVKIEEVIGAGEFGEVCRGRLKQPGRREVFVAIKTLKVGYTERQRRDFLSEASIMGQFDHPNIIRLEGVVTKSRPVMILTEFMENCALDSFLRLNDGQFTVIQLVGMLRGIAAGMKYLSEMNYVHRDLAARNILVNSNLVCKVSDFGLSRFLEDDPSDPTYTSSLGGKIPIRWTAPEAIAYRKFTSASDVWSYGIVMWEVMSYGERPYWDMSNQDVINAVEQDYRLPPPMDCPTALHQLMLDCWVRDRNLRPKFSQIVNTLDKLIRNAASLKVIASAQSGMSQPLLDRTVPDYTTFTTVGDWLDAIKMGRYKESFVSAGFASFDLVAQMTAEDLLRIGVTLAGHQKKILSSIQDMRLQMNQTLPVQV
Conditions: at 0.1 µM.

The target in test [12] is T3, Ephrin type-B receptor 3 (Homo sapiens). Conditions: at 1 µM.
For test [13], the target named is T4, Ephrin type-B receptor 4 (Homo sapiens) (UniProt P54760).
T4 sequence (whole entry): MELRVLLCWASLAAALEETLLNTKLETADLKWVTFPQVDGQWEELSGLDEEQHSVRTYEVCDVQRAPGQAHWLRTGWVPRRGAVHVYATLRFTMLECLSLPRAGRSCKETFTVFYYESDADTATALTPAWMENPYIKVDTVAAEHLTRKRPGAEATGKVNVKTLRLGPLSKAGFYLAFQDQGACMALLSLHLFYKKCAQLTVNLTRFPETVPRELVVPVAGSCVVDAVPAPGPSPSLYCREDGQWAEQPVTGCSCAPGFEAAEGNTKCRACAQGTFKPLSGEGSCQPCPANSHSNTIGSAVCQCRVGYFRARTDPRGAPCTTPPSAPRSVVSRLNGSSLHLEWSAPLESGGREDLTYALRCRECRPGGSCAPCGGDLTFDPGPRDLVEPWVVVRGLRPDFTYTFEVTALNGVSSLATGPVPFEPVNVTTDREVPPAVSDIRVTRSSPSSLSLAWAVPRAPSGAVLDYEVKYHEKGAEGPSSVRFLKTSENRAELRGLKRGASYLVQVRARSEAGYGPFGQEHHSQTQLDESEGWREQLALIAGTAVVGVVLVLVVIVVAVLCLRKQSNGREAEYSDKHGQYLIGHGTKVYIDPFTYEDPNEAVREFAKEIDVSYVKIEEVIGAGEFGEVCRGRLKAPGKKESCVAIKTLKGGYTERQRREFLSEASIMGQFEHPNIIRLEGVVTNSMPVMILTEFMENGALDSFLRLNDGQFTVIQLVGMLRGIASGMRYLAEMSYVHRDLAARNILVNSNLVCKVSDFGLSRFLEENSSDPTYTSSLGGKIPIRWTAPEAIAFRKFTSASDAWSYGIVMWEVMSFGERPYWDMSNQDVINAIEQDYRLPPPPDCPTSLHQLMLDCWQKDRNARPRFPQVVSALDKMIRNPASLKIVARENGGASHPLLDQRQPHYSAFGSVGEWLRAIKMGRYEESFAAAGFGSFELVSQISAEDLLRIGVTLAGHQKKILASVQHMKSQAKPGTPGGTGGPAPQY
Conditions: at 0.1 µM.

Test [14] deals with T4, Ephrin type-B receptor 4 (Homo sapiens). Conditions: at 1 µM.
For test [15], the target named is Receptor tyrosine-protein kinase erbB-2 (Homo sapiens) (UniProt P04626). Conditions: at 0.1 µM.
The target is the same in test [16]. Conditions: at 1 µM.
The target of test [17] is Receptor tyrosine-protein kinase erbB-4 (Homo sapiens) (UniProt Q15303). Conditions: at 0.1 µM.
For test [18] the target is unchanged. Conditions: at 1 µM.
Test [19] has as its target Tyrosine-protein kinase Fer (Homo sapiens) (UniProt P16591). Conditions: at 0.1 µM.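 Note: reported figures are averaged percent inhibition of FER.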
Test [20] has as its target T2, Ephrin type-B receptor 2 (Homo sapiens). Conditions: at 0.1 µM.

UniProt P54764, sequence (P54764 whole entry): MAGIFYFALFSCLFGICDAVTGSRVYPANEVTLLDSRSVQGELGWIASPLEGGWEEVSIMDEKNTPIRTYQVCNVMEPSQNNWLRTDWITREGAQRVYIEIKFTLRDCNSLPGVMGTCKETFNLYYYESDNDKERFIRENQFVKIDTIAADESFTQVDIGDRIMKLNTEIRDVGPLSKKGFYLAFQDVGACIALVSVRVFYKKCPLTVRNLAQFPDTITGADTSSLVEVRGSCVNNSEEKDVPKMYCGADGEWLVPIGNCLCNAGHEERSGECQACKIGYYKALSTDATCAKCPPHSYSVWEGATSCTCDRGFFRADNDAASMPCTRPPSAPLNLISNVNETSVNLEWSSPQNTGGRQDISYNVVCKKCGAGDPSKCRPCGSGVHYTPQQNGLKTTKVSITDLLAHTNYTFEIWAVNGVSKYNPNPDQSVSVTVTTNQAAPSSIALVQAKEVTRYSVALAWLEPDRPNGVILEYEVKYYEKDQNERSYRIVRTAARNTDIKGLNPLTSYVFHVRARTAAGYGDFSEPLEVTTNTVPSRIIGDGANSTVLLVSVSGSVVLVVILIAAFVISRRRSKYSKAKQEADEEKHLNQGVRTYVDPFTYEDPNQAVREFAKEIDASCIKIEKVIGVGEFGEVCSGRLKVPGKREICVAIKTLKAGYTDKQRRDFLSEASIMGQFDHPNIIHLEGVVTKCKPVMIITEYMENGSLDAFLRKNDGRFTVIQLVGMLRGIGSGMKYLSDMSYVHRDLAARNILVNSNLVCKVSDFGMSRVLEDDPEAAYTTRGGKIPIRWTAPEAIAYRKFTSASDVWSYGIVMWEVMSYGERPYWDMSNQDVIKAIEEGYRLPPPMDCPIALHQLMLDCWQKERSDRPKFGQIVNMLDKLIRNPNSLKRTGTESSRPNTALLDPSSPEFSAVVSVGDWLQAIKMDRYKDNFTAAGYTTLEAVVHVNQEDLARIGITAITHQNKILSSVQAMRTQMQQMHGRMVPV
UniProt P29317, sequence (P29317 whole entry): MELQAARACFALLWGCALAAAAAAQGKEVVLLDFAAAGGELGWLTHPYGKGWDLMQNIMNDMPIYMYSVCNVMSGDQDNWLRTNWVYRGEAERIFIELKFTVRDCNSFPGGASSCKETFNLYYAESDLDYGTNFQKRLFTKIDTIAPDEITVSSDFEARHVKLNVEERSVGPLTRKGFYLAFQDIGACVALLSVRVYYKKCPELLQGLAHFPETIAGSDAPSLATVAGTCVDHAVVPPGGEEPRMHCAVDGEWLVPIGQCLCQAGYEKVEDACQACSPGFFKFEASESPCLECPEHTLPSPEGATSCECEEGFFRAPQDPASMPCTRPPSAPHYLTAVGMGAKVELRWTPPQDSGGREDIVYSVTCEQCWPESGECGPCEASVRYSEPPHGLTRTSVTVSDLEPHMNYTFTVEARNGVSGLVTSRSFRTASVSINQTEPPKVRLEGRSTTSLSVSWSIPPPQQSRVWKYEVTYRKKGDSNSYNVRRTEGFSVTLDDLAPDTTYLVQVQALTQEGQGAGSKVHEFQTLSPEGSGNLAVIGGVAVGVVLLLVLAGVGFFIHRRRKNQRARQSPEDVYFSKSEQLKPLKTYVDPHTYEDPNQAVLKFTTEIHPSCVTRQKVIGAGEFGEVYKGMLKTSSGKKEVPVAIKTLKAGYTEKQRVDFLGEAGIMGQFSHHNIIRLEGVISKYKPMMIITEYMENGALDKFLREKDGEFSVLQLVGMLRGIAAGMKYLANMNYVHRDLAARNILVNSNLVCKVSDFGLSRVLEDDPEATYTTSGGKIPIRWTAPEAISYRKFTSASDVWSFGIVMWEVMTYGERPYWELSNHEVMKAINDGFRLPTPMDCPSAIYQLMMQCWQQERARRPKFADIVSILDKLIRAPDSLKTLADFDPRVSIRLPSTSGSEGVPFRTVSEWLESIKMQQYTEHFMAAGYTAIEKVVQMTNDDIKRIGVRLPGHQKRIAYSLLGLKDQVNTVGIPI
UniProt Q15303, sequence (Q15303 whole entry): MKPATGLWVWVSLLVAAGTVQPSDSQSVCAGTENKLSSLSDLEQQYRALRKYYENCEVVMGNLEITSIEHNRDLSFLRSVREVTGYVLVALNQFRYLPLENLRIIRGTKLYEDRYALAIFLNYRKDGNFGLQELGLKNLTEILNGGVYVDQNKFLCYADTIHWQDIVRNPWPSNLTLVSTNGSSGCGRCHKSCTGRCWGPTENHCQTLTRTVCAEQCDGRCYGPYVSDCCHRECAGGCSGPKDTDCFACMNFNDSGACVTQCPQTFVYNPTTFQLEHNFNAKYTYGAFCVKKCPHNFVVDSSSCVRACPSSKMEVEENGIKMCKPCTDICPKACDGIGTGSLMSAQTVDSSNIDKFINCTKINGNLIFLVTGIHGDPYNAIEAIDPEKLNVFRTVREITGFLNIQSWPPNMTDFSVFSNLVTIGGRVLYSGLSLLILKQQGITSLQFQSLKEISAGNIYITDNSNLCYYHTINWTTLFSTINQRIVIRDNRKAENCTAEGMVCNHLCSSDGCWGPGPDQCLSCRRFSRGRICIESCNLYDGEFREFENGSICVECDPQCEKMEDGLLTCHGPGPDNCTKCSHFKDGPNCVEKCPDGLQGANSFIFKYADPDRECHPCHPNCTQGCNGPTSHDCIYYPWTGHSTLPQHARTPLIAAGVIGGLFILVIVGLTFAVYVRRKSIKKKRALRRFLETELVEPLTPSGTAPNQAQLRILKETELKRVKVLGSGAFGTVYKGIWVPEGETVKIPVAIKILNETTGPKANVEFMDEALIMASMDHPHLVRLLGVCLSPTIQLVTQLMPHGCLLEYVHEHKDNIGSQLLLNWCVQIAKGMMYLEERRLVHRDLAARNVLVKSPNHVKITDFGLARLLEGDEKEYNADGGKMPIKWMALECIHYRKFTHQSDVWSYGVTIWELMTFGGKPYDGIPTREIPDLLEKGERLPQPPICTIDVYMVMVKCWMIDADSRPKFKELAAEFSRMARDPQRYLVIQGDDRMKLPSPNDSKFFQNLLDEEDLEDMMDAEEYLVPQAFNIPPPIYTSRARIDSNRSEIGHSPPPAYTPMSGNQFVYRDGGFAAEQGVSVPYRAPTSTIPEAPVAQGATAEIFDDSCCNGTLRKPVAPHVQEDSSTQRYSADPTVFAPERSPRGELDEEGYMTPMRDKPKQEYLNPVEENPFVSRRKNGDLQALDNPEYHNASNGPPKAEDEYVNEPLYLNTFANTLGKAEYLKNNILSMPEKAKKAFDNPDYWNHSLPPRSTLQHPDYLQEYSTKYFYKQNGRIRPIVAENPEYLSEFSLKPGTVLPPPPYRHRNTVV
UniProt P16591, sequence (P16591 whole entry, looked up): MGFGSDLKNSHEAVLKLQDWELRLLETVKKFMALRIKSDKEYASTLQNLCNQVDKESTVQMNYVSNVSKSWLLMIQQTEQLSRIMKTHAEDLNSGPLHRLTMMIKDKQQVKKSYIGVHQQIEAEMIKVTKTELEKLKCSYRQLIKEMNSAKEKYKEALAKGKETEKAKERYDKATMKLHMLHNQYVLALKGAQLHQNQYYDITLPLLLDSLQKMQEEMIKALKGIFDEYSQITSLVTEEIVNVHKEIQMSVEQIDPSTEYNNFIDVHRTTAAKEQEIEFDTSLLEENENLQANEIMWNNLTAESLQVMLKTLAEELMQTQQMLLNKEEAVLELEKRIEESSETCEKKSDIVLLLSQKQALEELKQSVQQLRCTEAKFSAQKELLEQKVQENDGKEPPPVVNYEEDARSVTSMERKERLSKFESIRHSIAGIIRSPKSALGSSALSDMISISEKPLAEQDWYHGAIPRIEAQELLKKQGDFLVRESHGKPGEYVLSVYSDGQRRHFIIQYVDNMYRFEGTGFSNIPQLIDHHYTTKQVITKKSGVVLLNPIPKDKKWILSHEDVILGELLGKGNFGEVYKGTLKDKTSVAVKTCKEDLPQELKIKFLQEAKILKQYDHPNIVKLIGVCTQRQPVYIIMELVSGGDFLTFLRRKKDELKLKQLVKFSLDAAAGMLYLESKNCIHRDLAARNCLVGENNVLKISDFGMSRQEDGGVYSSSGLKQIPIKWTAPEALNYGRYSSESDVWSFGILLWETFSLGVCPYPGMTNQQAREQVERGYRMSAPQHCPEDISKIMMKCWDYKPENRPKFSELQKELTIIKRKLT

As a reminder, the inhibition is the relative decrease from the control value, in per cent. Take `O=C1NC(=O)C(c2cccc([N+](=O)[O-])c2)=C1Nc1cc(Cl)c(O)c(Cl)c1`: the inhibition in test [1] is -1.04%; in test [2] it was 0.58%; in [3] it was -4.23%; in test [4], 1.65%; in test [5] it was -0.45%; in test [6], 2.74%. Moreover, the inhibition was determined as 1.24% in test [7]; 0.6% in test [8]; 1.76% in test [9]; 0.02% in [10]; 1.61% in test [11]; 3.06% in [12]. The inhibition in test [13] was -0.74%; in [14], 1.7%; in [15], 0.75%; in [16] it was 2.08%; in [17], 3.57%; in test [18] it was 9.81%. In test [19], the inhibition turned out to be 1.72%.

For the molecule `CC(C)(C)c1ccc(Oc2nccc(-c3c(-c4ccc(F)cc4)ncn3C3CCNCC3)n2)cc1`, the inhibition in [1] was 3.64%; in [2] it was 2.33%; in test [3], 1.72%; in test [4] it was -1.82%; in test [5], -2.37%; in test [6] it was 2.7%. Also, the inhibition came to 3.81% in test [7]; 7.05% in test [8]; 9.82% in test [9]; 8.19% in [20]; 9.58% in [10]; 3.21% in [11]. Further, the inhibition in test [12] was 3.92%; in [13], 3.87%; in test [14] it was 2.44%; in [15] it was 5.85%; in [16] it was 5.29%; in test [17] it was 10.6%. Moreover, the figures for the inhibition in [18] and in test [19] were 14.4% and -1.13%, respectively.

Turning to `COc1ccccc1Oc1nccc(-c2c(-c3ccc(F)cc3)ncn2C2CCNCC2)n1`, the inhibition in test [1] is 1.84%; in test [2] it was 2.02%; in [3], 0.34%; in test [4], 0.33%; in test [5], 0.02%; in [7] it was 5.04%. Further, the inhibition in test [8] is 7.94%; in [9], 11.4%; in test [20], 9.03%; in [10] it was 7.2%; in [11], 4%; in test [12], 7.2%. The inhibition in test [13] was determined as 0.68%; in test [14] it was 3.62%; in [15], 11.4%; in test [16] it was 13.4%; in test [17], 15.5%; in test [18], 19.1%. Moreover, the inhibition in test [19] worked out at 3.88%.

`NC(=O)CCc1ccccc1Oc1nccc(-c2c(-c3ccc(F)cc3)ncn2C2CCNCC2)n1`: the inhibition was 0.13% in test [1]; 1.63% in test [2]; 1.13% in test [3]; -3.79% in test [4]; -2.96% in [5]; -7.44% in test [6]. Further, the inhibition is -7.43% in test [7]; -8.27% in [8]; -5.77% in test [9]; -3.48% in test [20]; -1.73% in [10]; -5.75% in test [11]. The inhibition in test [12] was -2.65%; in [13] it was -1.79%; in test [14] it was -1.48%; in test [15], 0.65%; in [16], -0.26%; in test [17], -3.86%. Also, the results for the inhibition in test [18] and in test [19] were -2.47% and 1.8%, respectively.
